Data as given in PubChem BioAssay AID743279 (National Center for Advancing Translational Sciences (NCATS), 2014).
The campaign covered roughly 360,000 compounds. About 17,000 (4.7%) were called active. The shares of active, inactive and inconclusive entries below differ from those in the screen. Rule as the data show it: active = activity change below about -50%; inconclusive = mostly about -30% to -49%; inactive = weaker than that.

Experiment: qHTS for Inhibitors of Inflammasome Signaling: IL-1-beta AlphaLISA Primary Screen
Conditions: THP-1 LPS/ATP IL-1B secretion, 16 h; at 57.5 µM, stronger effect = lower value
Outline: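 THP-1 cells pretreated 1 hr with compounds (up to 57.5 uM final), then stimulated with LPS (250 ng/mL final) plus ATP (1.25 mM final); secreted IL-1B measured by AlphaLISA after 16 hr, decreased signal indicating inhibition.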
% is scaled to controls: 0 for no effect and ±100 for the full control effect.

Activity change, active:
CC[n+]1c(/C=C2\Sc3ccccc3N2C)ccc2cccc(C)c21 -99.6%, COc1cc(CNCc2cccs2)ccc1OCc1cccs1 -83.9%, O=C(NCCCSc1ccccc1)c1cnc(Cl)c(Cl)c1 -93.7%, Cc1ccc(C(=O)N/N=C/c2ccc(-c3ccc(Br)cc3[N+](=O)[O-])o2)o1 -85.1%, CC1=CC(=NOC(=O)/C=C/c2ccccc2)C=C(C)C1=O -64.7%, O=c1c2ccccc2oc2ccc(NCCCN3CCOCC3)cc12 -53.3%, CC(NCc1cccs1)C(=O)NC1CCCCC1 (stereo unspecified) -62.2%, Cc1cccc(C(=O)Nc2ccc(C(=O)c3ccccc3)cc2)c1 -80.2%, COc1ncccc1C(=O)NC1CCCc2c1cnn2-c1cc(C)cc(C)c1 (stereo unspecified) -55.6%, O=C(c1ccco1)N1CCN(C(=O)c2ccc(-c3ccccc3Cl)o2)CC1 -55.3%, Cc1ccc2cc(CN(CC3CCCO3)C(=S)Nc3ccccc3)c(=O)[nH]c2c1C (stereo unspecified) -53%, O=C(Nc1ccncc1)Nc1ccc(Cl)cc1 -94.4%, Cc1cc(C)c2[nH]c(=O)c(CN(Cc3ccc4c(c3)OCO4)Cc3nnnn3C3CCCC3)cc2c1 -50.6%

Activity change, inactive:
Cc1c(C(=O)NCC2COc3ccccc3O2)oc2ccc(S(=O)(=O)N3CCOCC3)cc12 (stereo unspecified) -7.74%, Nc1ncn([C@@H]2O[C@H](CO)[C@@H](O)[C@H]2O)c(=O)n1 0%, CCc1nnc(N/N=C/c2ccc(O)c(OC)c2)n1N 0%, O=C(NC1CCS(=O)(=O)C1)c1ccc(S(=O)(=O)N2CCCCC2)cc1 (stereo unspecified) 5.71%, CC(Oc1ccccc1Cl)C(=O)N(Cc1cccs1)C1CCS(=O)(=O)C1 (stereo unspecified) -17.4%, COc1ccccc1NC(=O)c1ccc(S(=O)(=O)N2CCCC(C)C2)cc1 (stereo unspecified) -8.22%, O=C(c1ccncc1)c1ccc(NS(=O)(=O)c2ccc(Br)s2)cc1 26.1%, Cc1ccc(N(CC(=O)N/N=C/c2cc(C)n(-c3ccccc3)c2C)S(C)(=O)=O)c(C)c1 -27.5%, CN(C)c1cc(-c2ccccc2)nc(-c2ccccc2)n1 -17.9%, Cc1ccc(SCc2nc(-c3ccncc3)no2)cc1 -7.49%, O=C(NCc1cccnc1)c1cc(C2CCCCN2C(=O)OCCF)on1 (stereo unspecified) 0%, COc1ccc2c(c1OC)CN(C)CCc1cc3c(cc1C(O)C2)OCO3 (stereo unspecified) 1.82%, Nc1[nH]nc2nc(N3CCCC3)nc(-c3ccccc3)c12 -3.7%, Cc1ccc(NC(=S)NCc2ccc(Cl)cc2)c(C)c1 -10%, O=C(CCN1C(=O)S/C(=C\c2ccc(Cl)cc2)C1=O)Nc1ccc(C(=O)O)cc1 -20.1%, Cc1ccccc1Cn1ccc(NC(=O)c2cc3ncc(Br)cn3n2)n1 2.78%, CCOC(=O)C(=O)Nc1cc([N+](=O)[O-])ccc1C 0%, CCOC(=O)N1CCC(Nc2ccc(N3C(=O)C4CCCCC4C3=O)cc2[N+](=O)[O-])CC1 (stereo unspecified) 11.6%, CCOC(=O)c1sc(NC(=O)c2cccc(S(=O)(=O)N3CCc4ccccc43)c2)c(C#N)c1C 35.6%, Cc1ccc(C(=O)OCC(=O)Nc2cc(Cl)ccc2C#N)o1 3.86%, CCOc1ccc(NC(=O)CN(C)C(=O)c2ccc(C)o2)cc1OCC 10.9%, C=CCC[C@H](Cc1ccc(F)cc1)C(=O)OC[C@@H](Cc1c[nH]c2ccccc12)NC(=O)[C@@H](CC=C)CC(=O)NCCO -17.1%, Cc1onc(-c2ccccc2)c1C(=O)NC(=S)NNC(=O)c1ccc(O)cc1 61.3%

Activity change, inconclusive:
COc1ccc(C/C(C)=N\NC(=O)c2cn(C)c3ccccc23)cc1OC -34.1%, Cc1ccccc1C(=O)N1CCN(c2ccc(NC(=S)NC(=O)c3cccs3)cc2)CC1 -38%, CC(COc1ccccc1)N(CCCl)Cc1ccccc1 (stereo unspecified) -41.8%, CCCN(CC(=O)NC(=O)NCc1ccccc1)CC(=O)Nc1ccc(F)c(F)c1F -35.1%, Cn1c2c(c(O)c(-c3ccccc3)c1=O)C(=O)CC(C)(C)C2 -40.6%, COc1cc(CN2C[C@@H](CO)O[C@@H](n3cnc4c(NC5CC5)ncnc43)C2)cc(OC)c1OC -31.2%, S=C(c1cccs1)N1CCN(c2ccccc2)CC1 -30.4%, Cc1oc(-c2ccc(Cl)cc2)nc1CN1CCC(C(=O)NCCCN2CCOCC2)CC1 -33.8%, COc1cccc2cc(-c3nnc(-c4ccccc4)o3)c(=O)oc12 -36.5%, COCCSc1ccccc1C(=O)N1CCN(Cc2ccccc2)CC1 -33.6%, Cc1ccc(CN2C(=O)C(CC(C)C)Nc3ncnc(N4CCN(c5ccccc5)CC4)c32)cc1 (stereo unspecified) -38.8%, COc1ccc(/C=C/C(=O)c2c(O)c(OC)c3occc3c2OC)cc1 -48.2%, C=CCn1c(SCc2csc(-c3ccc(C)cc3)n2)nnc1-c1ccccc1OC -32.7%, COc1ccc(-c2nn(-c3ccccc3)cc2/C=C/C(=O)N2CCOCC2)cc1OC -48.5%, NCc1ccc2[nH]c(=O)[nH]c2c1 -42.6%, COc1cc(/C=N/NC(=O)c2nnn(-c3nonc3N)c2C(C)C)ccc1OCc1ccc(F)cc1 -38.5%, O=C1OCCN1C(=O)[C@H]1[C@H](c2ccccc2)C(c2ccc(F)cc2)=NN1c1ccccc1 -30.1%, COC(=O)CSc1nc(N2CCOCC2)c2c(c1C#N)CC(C)(C)N(C)C2 -39.2%, O=C(Nc1ccccc1C(=O)Nc1ccc2c(c1)OCO2)c1ccco1 -41.4%, CCCc1nc2sc(C(=O)OCC)c(N)c2c2c1COC(C)(C)C2 -30.5%, CC(/C=C1\NC(=S)NC1=O)=C\c1ccccc1 -32.4%, COc1ccc(-c2csc(NC(C)=O)n2)cc1OC -32.2%, CCOc1ccc(CNC(=O)CCCn2nc(C)c3c(C)n(-c4ccc(C)cc4)nc3c2=O)cc1 -34.5%, CC1=C(C(=O)c2ccccc2)C(c2ccc(OC(F)F)cc2)NC(=S)N1 (stereo unspecified) -32.7%, CCN1CCN(CCNC(=O)c2ccc(/C=C3/Sc4ccccc4N(Cc4cccc(C)c4)C3=O)cc2)CC1 -42.8%, O=C(COC(=O)CNS(=O)(=O)c1ccc(Br)cc1Cl)NC1CCCC1 -31.7%, CC1CCCCN1Cc1c(O)ccc2c(=O)c(-c3ccc(Cl)cc3)coc12 (stereo unspecified) -31.6%, COc1ccc(CC(NC(C)=O)C(=O)NC2CCN(c3c(Cc4ccccc4)c(C)nc4ncnn34)CC2)c(OC)c1 (stereo unspecified) -40.5%, O=C(COC(=O)CCC(=O)c1ccc(F)cc1)NCc1ccc(Cl)cc1 -44.3%, COc1ccc(C2CC(c3ccccc3)=NN2c2ccc(N)cc2)cc1 (stereo unspecified) -37.8%, O=C(N/N=C\c1cccc(Cl)c1)c1n[nH]c2c1CCCC2 -48.1%, COc1ccc(CN2C3CCCC2CC(NC(=O)/C=C/c2ccccc2)C3)cc1 (stereo unspecified) -49%, Cc1cccc(-c2nc(C#N)c(NC3CCCCC3)o2)c1 -33.6%, O=C(COC(=O)Cn1cnc2ccccc2c1=O)NCCC1=CCCCC1 -37.2%, COC(=O)CNC(=O)Cn1c(=O)n(Cc2ccc(F)cc2)c(=O)c2sccc21 -34.4%, CC1Sc2ccc(S(=O)(=O)N3CCC(C(=O)Nc4cccc(Cl)c4)CC3)cc2NC1=O (stereo unspecified) -48.4%, COc1ccc(CN2CCN(Cc3c[nH]c4ccccc34)CC2CCO)cc1C (stereo unspecified) -32.9%, COc1cccc(CN(C)C(=O)c2cc(S(=O)(=O)N3CCCCCC3)ccc2OC)c1 -36.7%, COC(=O)c1cc(NC(=O)c2cccc(C(F)(F)F)c2)c(=O)oc1C -30.3%, COc1ccc(N2CCN(C(c3ccccc3)c3nnnn3Cc3ccc(F)cc3)CC2)cc1 (stereo unspecified) -30.3%, Cc1cccc(C(=O)NNC(=S)NC(=O)c2ccccc2)c1 -45.8%, COc1cccc(NC(=S)N(CCCN2CCCC2)Cc2cccn2Cc2ccc(Cl)cc2)c1 -40.4%, CCN1CCN(C(CNS(=O)(=O)c2ccc(Cl)cc2)c2ccccc2)CC1 (stereo unspecified) -45.5%, Cc1ccc(-c2ccc(=O)n(CCC(=O)N3CCN(c4ccccc4)CC3)n2)cc1 -32.1%, C=CCn1c(SCC(=O)N2CCc3ccccc3C2)nc2sc(C)cc2c1=O -35.9%, COc1cc2cc(C(c3nnnn3C3CCCCC3)N(C)C3CCCCC3)c(=O)[nH]c2cc1OC (stereo unspecified) -37%, Nc1ccccc1C(=O)NCCCN1CCN(c2cccc(Cl)c2)CC1 -33.4%, NC(=O)C1CCN(C(=O)N2c3ccccc3Sc3ccccc32)CC1 -46.8%, CCOC(=O)c1sc2nc3n(c(=O)c2c1C)CCC(C)CC3 (stereo unspecified) -48.5%, CCOc1ccc(C(O)(c2ccccc2OC)C(CN2CCCC2)c2ccccc2)cc1 (stereo unspecified) -37.3%
